Source: patent publication US5545639A, “Method of inhibiting transformed cells” (The United States of America as represented by the …, priority 1994, dated 1996)

Assay: Example 4: toxicity in whole animals, intraperitoneal injection in mice
Details: i.p.
Protocol: Another set of mice were treated similarly with the bis(bromomethyl)phenanthroline derivative; all died when given a dose of 60 mg/kg of body mass. […] These toxicity data were provided by The Developmental Therapeutics Program of the National Cancer Institute.

Compound: ClCc1ccc2ccc3ccc(CCl)nc3c2n1 [2,9-bis(chloromethyl)-1,10-phenanthroline]
- toxic effects / deaths (240 mg/kg of body mass in five consecutive days): displayed no toxic effects, i.e., none of the experimental animals died or displayed any deleterious effects

Compound: BrCc1ccc2ccc3ccc(CBr)nc3c2n1 [2,9-bis(bromomethyl)-1,10-phenanthroline]
- deaths (dose of 60 mg/kg of body mass): all died
